Results from the supplement of paper PMC4967469.
The IC50 comes from the fitted curve, where viability falls to half of the control; a limit (>, <) means that the fit lies beyond the doses tested. AUC, from the same fit, is the share of area under the viability curve across the 256-fold dose range; the more sensitive the line, the further below 1. An inferred top dose was calculated from the reported fits. For some of these results: Where an entry number is given, a second screen of the drug exists; the two often differ.

Legend:
AICAR = compound: NC(=O)c1ncn([C@@H]2O[C@H](CO)[C@@H](O)[C@H]2O)c1N [AICAR]; experiment: Viability of human cancer cell lines after 72 h of drug (GDSC screen); settings: top dose 2000 µM; top dose inferred
Procedure: (§1)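 Human cancer cell lines in 384-well plates, medium with 10% serum, drug for 72 h over a 256-fold dose range (nine 2-fold or five 4-fold steps up to the top dose). Adherent lines were fixed and stained with the nucleic acid dye Syto60, suspension lines read with resazurin; signal relative to control wells, capped at 0 and 100%. One two-parameter sigmoid per drug and line, fitted in a mixed model over all curves with the slope shared within a line.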

AKT inhibitor VIII = compound: O=c1[nH]c2ccccc2n1C1CCN(Cc2ccc(-c3[nH]c4cc5ncnc5cc4nc3-c3ccccc3)cc2)CC1 [AKT inhibitor VIII]; experiment: as above; settings: top dose inferred
Procedure: as §1

[1] = top dose 2.56 µM, screen: GDSC drug entry 171
[2] = top dose 10.24 µM, screen: GDSC drug entry 228

| Cell Line | AUC (AICAR) | IC50 (AICAR) [µM] | AUC (AKT inhibitor VIII; [1]) | IC50 (AKT inhibitor VIII; [1]) [µM] | AUC (AKT inhibitor VIII; [2]) | IC50 (AKT inhibitor VIII; [2]) [µM] |
| --- | --- | --- | --- | --- | --- | --- |
| PL4 (pancreas, adherent) | 0.987 | > 2000 | 0.944 | > 2.56 | 0.972 | > 10.2 |
| PL-21 (acute myeloid leukaemia, suspension) | 0.763 | 835 | 0.905 | > 2.56 | 0.509 | 0.681 |
| PSN1 (pancreas, adherent) | 0.815 | 888 | 0.988 | > 2.56 | 0.937 | > 10.2 |
| QGP-1 (pancreas, adherent) | 0.95 | > 2000 | – | – | 0.924 | > 10.2 |
| QIMR-WIL (acute myeloid leukaemia, suspension) | 0.828 | 1180 | 0.961 | > 2.56 | 0.569 | 0.983 |
| RC-K8 (B-cell lymphoma, suspension) | 0.854 | 1260 | 0.993 | > 2.56 | 0.953 | > 10.2 |
| RCC10RGB (kidney, adherent) | 0.968 | > 2000 | 0.908 | > 2.56 | 0.936 | > 10.2 |
| RCC-AB (kidney, adherent) | 0.961 | > 2000 | – | – | 0.82 | 8.37 |
| RCC-ER (kidney, adherent) | 0.877 | > 2000 | – | – | 0.926 | > 10.2 |
| RCC-FG2 (kidney, adherent) | 0.891 | > 2000 | – | – | 0.86 | > 10.2 |
| RCC-JF (kidney, adherent) | 0.889 | > 2000 | – | – | 0.87 | > 10.2 |
| RCC-JW (kidney, adherent) | 0.857 | 1690 | – | – | 0.953 | > 10.2 |
| RCC-MF (kidney, adherent) | 0.93 | > 2000 | – | – | 0.886 | > 10.2 |
| RCM-1 (large intestine, adherent) | 0.944 | > 2000 | 0.96 | > 2.56 | 0.975 | > 10.2 |
| REH (B-cell leukaemia, suspension) | 0.868 | 1710 | 0.921 | > 2.56 | 0.466 | 0.518 |
| RERF-LC-KJ (lung adenocarcinoma, adherent) | 0.912 | > 2000 | 0.874 | > 2.56 | 0.703 | 2.44 |
| RERF-LC-MS (lung adenocarcinoma, adherent) | 0.983 | > 2000 | 0.947 | > 2.56 | 0.983 | > 10.2 |
| RERF-LC-Sq1 (lung squamous cell carcinoma, adherent) | 0.802 | 1590 | 0.901 | > 2.56 | 0.92 | > 10.2 |
| RF-48 (stomach, adherent) | 0.893 | > 2000 | 0.862 | > 2.56 | 0.742 | 3.49 |
| RH-1 (rhabdomyosarcoma, adherent) | 0.918 | > 2000 | 0.992 | > 2.56 | 0.761 | 3.08 |
| RH-41 (rhabdomyosarcoma, adherent) | 0.887 | 1590 | 0.973 | > 2.56 | 0.989 | > 10.2 |
| RKN (ovary, adherent) | 0.986 | > 2000 | 0.946 | > 2.56 | 0.919 | > 10.2 |
| RKO (large intestine, adherent) | 0.924 | > 2000 | 0.948 | > 2.56 | 0.894 | > 10.2 |
| RMG-I (ovary, adherent) | 0.973 | > 2000 | 0.981 | > 2.56 | 0.819 | 7.12 |
| RO82-W-1 (thyroid, adherent) | 0.922 | > 2000 | 0.941 | > 2.56 | 0.983 | > 10.2 |
| ROS-50 (B-cell leukaemia, suspension) | 0.872 | > 2000 | 0.971 | > 2.56 | 0.878 | > 10.2 |
| RPMI-2650 (head and neck, adherent) | 0.979 | > 2000 | 0.817 | 1.59 | 0.808 | 5.81 |
| RPMI-6666 (Hodgkin lymphoma, suspension) | 0.93 | > 2000 | 0.889 | > 2.56 | 0.517 | 0.717 |
| RPMI-7951 (melanoma, adherent) | 0.824 | 1140 | 0.98 | > 2.56 | 0.906 | > 10.2 |
| RPMI-8226 (myeloma, suspension) | 0.522 | 142 | 0.991 | > 2.56 | 0.83 | 5.3 |
